Results as given in PMC5107933.
Results are given in words; binding and its absence hold for the method and conditions named. In cells and extracts the contact can be indirect. Some results given as binding are weak or reduced against the parent protein; the word gives no strength.

By UniProt entry, the sequences of proteins in these tests, tags left out.
UniProt G1TJL6: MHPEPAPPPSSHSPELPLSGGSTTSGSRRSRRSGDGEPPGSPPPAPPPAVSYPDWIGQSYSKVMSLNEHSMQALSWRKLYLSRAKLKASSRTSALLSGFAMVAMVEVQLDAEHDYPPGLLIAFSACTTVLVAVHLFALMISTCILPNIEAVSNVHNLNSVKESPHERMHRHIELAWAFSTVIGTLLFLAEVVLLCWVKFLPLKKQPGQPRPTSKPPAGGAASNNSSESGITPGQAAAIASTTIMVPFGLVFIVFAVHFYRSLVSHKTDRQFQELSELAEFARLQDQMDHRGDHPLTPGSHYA

Target: Orai1, endogenous in rabbit skeletal muscle triad vesicles (rabbit (endogenous in skeletal muscle triad vesicles)) (UniProt G1TJL6)
Assay: co-IP; solubilized triad vesicle sample from rabbit skeletal muscle (30 μg of total proteins); immunoprecipitation with anti-Orai1 or anti-MG53 antibody; immunoblot with various antibodies; reaction without antibody as negative control

binding: binds
B1: Mitsugumin 53 (MG53), endogenous in rabbit skeletal muscle triad vesicles (protein, UniProt Q1XH18 1-477)
chain: MSAAPGLLHQELSCPLCLQLFDAPVTAECGHSFCRACLSRVAGEPAADGTVNCPCCQAPTRPQALSTNLQLARLVEGLAQVPQGHCEEHLDPLSIYCEQDRVLVCGVCASLGSHRGHRLLPAAEAHSRLKTQLPQQKLQLQEASMRKEKSVAVLEHQLTEVEETVRQFRGAVGEQLGKMRVFLAALEGSLDREAERVRSEAGVALRRELGGLHSYLEQLRQMEKVLEEVADKPQTEFLMKYCLVTSRLQKILAESPPPARLDIQLPIISDDFKFQVWRKMFRALMPALEELTFDPSSAHPSLVVSPTGRRVECSEQKAPPAGDDARQFDKAVAVVAQQLLSDGEHYWEVEVGDKPRWALGVMASEASRRGRLHAVPSQGLWLLGLRDGKTLEAHVEAKEPRALRTPERRPTRLGLYLSFGDGVLAFYDASDADALELLFAFRERLPGPVYPFFDVCWHDKGKNAQPLLLVGPDGQEA
